In the supplement of paper PMC9151546:
Many values rest on one well or one pass, so single values are uncertain.

Experiments:
CHO-K1 [1] = assay: micronucleus frequency (% of nucleated events); higher = more micronuclei (genotoxic)
CHO-K1 [2] = assay: hypodiploid nuclei frequency (% of nucleated events); higher = more hypodiploid events (aneugenic)
Protocol: (§1)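 Flow-cytometric in vitro micronucleus assay (Litron MicroFlow) in CHO-K1 cells in 96-well plates, 19 concentrations (4.5-200 µM, n=1 per concentration). Without S9, cells were exposed for 24 h and sampled at 48 h. With Aroclor 1254-induced rat liver S9, cells were exposed for 3-4 h and sampled at 27-28 h. Read-outs are %MN and %hypodiploid nuclei relative to nucleated events, and relative survival as the nuclei-to-bead ratio versus the 1% DMSO vehicle control (x100).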

CHO-K1 [3] = assay: relative survival (nuclei to bead ratio vs DMSO control) (% of vehicle control); higher = more surviving cells
Protocol: as §1
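Wherever hypodiploid nuclei frequency (% of nucleated events) is given: hypodiploid nuclei gated on a flow cytometer with 488 nm excitation after SYTOX Green staining, cultures at 37 °C, positive controls vinblastine without S9 and cyclophosphamide with S9.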
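Wherever micronucleus frequency (% of nucleated events) is given: cells lysed with nuclei stained by SYTOX Green, then micronucleus-gated events counted against nucleated events by flow cytometry with 488 nm excitation.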
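Wherever relative survival (nuclei to bead ratio vs DMSO control) is given: Lysed-cell nuclei stained with SYTOX Green and counted against counting beads by flow cytometry at 488 nm excitation, with vinblastine (no S9) and cyclophosphamide (plus S9) as positive controls.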

O=S1(=O)CCCO1 [1,3-Propane sultone]
Conditions | hypodiploid nuclei frequency, CHO-K1 [2] [%] | micronucleus frequency, CHO-K1 [1] [%] | relative survival, CHO-K1 [3]
concentration: 4.48 (µM), S9 metabolic activation: with S9, exposure time: 3-4 hours | 0.48 | 1.92 | 62.1
concentration: 4.48 (µM), S9 metabolic activation: without S9, exposure time: 24 hours | 1.24 | 1.98 | 74.9
concentration: 5.6 (µM), S9 metabolic activation: with S9, exposure time: 3-4 hours | 0.32 | 1.5 | 55.4
concentration: 5.6 (µM), S9 metabolic activation: without S9, exposure time: 24 hours | 0.94 | 1.76 | 69.2
concentration: 7 (µM), S9 metabolic activation: with S9, exposure time: 3-4 hours | 0.36 | 2.32 | 54.2
concentration: 7 (µM), S9 metabolic activation: without S9, exposure time: 24 hours | 0.74 | 1.78 | 81.8
concentration: 8.75 (µM), S9 metabolic activation: with S9, exposure time: 3-4 hours | 0.42 | 1.98 | 62.7
concentration: 8.75 (µM), S9 metabolic activation: without S9, exposure time: 24 hours | 0.98 | 1.54 | 80.2
concentration: 10.9 (µM), S9 metabolic activation: with S9, exposure time: 3-4 hours | 0.4 | 1.48 | 68.3
concentration: 10.9 (µM), S9 metabolic activation: without S9, exposure time: 24 hours | 0.88 | 1.74 | 77.7
concentration: 13.7 (µM), S9 metabolic activation: with S9, exposure time: 3-4 hours | 0.62 | 2.08 | 64.9
concentration: 13.7 (µM), S9 metabolic activation: without S9, exposure time: 24 hours | 1.04 | 2.06 | 112
concentration: 17.1 (µM), S9 metabolic activation: with S9, exposure time: 3-4 hours | 0.44 | 1.82 | 68.9
concentration: 17.1 (µM), S9 metabolic activation: without S9, exposure time: 24 hours | 1.26 | 1.84 | 102
concentration: 21.4 (µM), S9 metabolic activation: with S9, exposure time: 3-4 hours | 0.5 | 1.78 | 64.4
concentration: 21.4 (µM), S9 metabolic activation: without S9, exposure time: 24 hours | 1.08 | 1.8 | 97.5
concentration: 26.7 (µM), S9 metabolic activation: with S9, exposure time: 3-4 hours | 0.26 | 2.6 | 73.8
concentration: 26.7 (µM), S9 metabolic activation: without S9, exposure time: 24 hours | 1.64 | 1.56 | 83.8
concentration: 33.4 (µM), S9 metabolic activation: with S9, exposure time: 3-4 hours | 0.54 | 2.04 | 84.7
concentration: 33.4 (µM), S9 metabolic activation: without S9, exposure time: 24 hours | 1.26 | 2.48 | 96.1
concentration: 41.7 (µM), S9 metabolic activation: with S9, exposure time: 3-4 hours | 0.46 | 1.9 | 80.8
concentration: 41.7 (µM), S9 metabolic activation: without S9, exposure time: 24 hours | 1.46 | 2.16 | 95.2
concentration: 52.2 (µM), S9 metabolic activation: with S9, exposure time: 3-4 hours | 0.53 | 2.37 | 69.2
concentration: 52.2 (µM), S9 metabolic activation: without S9, exposure time: 24 hours | 1.08 | 1.72 | 87.8
concentration: 65.2 (µM), S9 metabolic activation: with S9, exposure time: 3-4 hours | 0.66 | 2.04 | 65.5
concentration: 65.2 (µM), S9 metabolic activation: without S9, exposure time: 24 hours | 1.5 | 2.44 | 90.2
concentration: 81.5 (µM), S9 metabolic activation: with S9, exposure time: 3-4 hours | 0.46 | 1.6 | 75.7
concentration: 81.5 (µM), S9 metabolic activation: without S9, exposure time: 24 hours | 1.48 | 2 | 97.1
concentration: 102 (µM), S9 metabolic activation: with S9, exposure time: 3-4 hours | 0.44 | 1.7 | 84.5
concentration: 102 (µM), S9 metabolic activation: without S9, exposure time: 24 hours | 1.54 | 1.96 | 105
concentration: 127 (µM), S9 metabolic activation: with S9, exposure time: 3-4 hours | 0.54 | 1.64 | 71.1
concentration: 127 (µM), S9 metabolic activation: without S9, exposure time: 24 hours | 1.44 | 2 | 100
concentration: 159 (µM), S9 metabolic activation: with S9, exposure time: 3-4 hours | 0.34 | 1.68 | 81.9
concentration: 159 (µM), S9 metabolic activation: without S9, exposure time: 24 hours | 2.28 | 2.98 | 123
concentration: 199 (µM), S9 metabolic activation: with S9, exposure time: 3-4 hours | 0.56 | 1.84 | 78.4
concentration: 199 (µM), S9 metabolic activation: without S9, exposure time: 24 hours | 2.42 | 3.12 | 98.5

Cc1ccc(C)c(O)c1 [2,5-Dimethylphenol]
Conditions | hypodiploid nuclei frequency, CHO-K1 [2] [%] | micronucleus frequency, CHO-K1 [1] [%] | relative survival, CHO-K1 [3]
concentration: 4.53 (µM), S9 metabolic activation: with S9, exposure time: 3-4 hours | 0.14 | 1.32 | 168
concentration: 4.53 (µM), S9 metabolic activation: without S9, exposure time: 24 hours | 0.52 | 2.12 | 132
concentration: 5.66 (µM), S9 metabolic activation: with S9, exposure time: 3-4 hours | 0.32 | 1.46 | 179
concentration: 5.66 (µM), S9 metabolic activation: without S9, exposure time: 24 hours | 0.46 | 1.84 | 119
concentration: 7.07 (µM), S9 metabolic activation: with S9, exposure time: 3-4 hours | 0.28 | 1.18 | 131
concentration: 7.07 (µM), S9 metabolic activation: without S9, exposure time: 24 hours | 0.52 | 1.28 | 127
concentration: 8.84 (µM), S9 metabolic activation: with S9, exposure time: 3-4 hours | 0.28 | 1.56 | 113
concentration: 8.84 (µM), S9 metabolic activation: without S9, exposure time: 24 hours | 0.34 | 1 | 117
concentration: 11.1 (µM), S9 metabolic activation: with S9, exposure time: 3-4 hours | 0.34 | 1.7 | 150
concentration: 11.1 (µM), S9 metabolic activation: without S9, exposure time: 24 hours | 0.72 | 1.04 | 115
concentration: 13.8 (µM), S9 metabolic activation: with S9, exposure time: 3-4 hours | 0.42 | 1.34 | 148
concentration: 13.8 (µM), S9 metabolic activation: without S9, exposure time: 24 hours | 0.84 | 1.54 | 117
concentration: 17.3 (µM), S9 metabolic activation: with S9, exposure time: 3-4 hours | 0.28 | 1.36 | 154
concentration: 17.3 (µM), S9 metabolic activation: without S9, exposure time: 24 hours | 0.38 | 1.7 | 127
concentration: 21.6 (µM), S9 metabolic activation: with S9, exposure time: 3-4 hours | 0.18 | 1.3 | 114
concentration: 21.6 (µM), S9 metabolic activation: without S9, exposure time: 24 hours | 0.62 | 0.78 | 117
concentration: 27 (µM), S9 metabolic activation: with S9, exposure time: 3-4 hours | 0.28 | 1.78 | 138
concentration: 27 (µM), S9 metabolic activation: without S9, exposure time: 24 hours | 0.7 | 1.36 | 123
concentration: 33.7 (µM), S9 metabolic activation: with S9, exposure time: 3-4 hours | 0.4 | 1.64 | 137
concentration: 33.7 (µM), S9 metabolic activation: without S9, exposure time: 24 hours | 0.68 | 1.8 | 153
concentration: 42.2 (µM), S9 metabolic activation: with S9, exposure time: 3-4 hours | 0.12 | 1.34 | 142
concentration: 42.2 (µM), S9 metabolic activation: without S9, exposure time: 24 hours | 0.82 | 2.12 | 123
concentration: 52.7 (µM), S9 metabolic activation: with S9, exposure time: 3-4 hours | 0.22 | 2.12 | 132
concentration: 52.7 (µM), S9 metabolic activation: without S9, exposure time: 24 hours | 0.7 | 2.22 | 128
concentration: 65.9 (µM), S9 metabolic activation: with S9, exposure time: 3-4 hours | 0.38 | 1.82 | 125
concentration: 65.9 (µM), S9 metabolic activation: without S9, exposure time: 24 hours | 1.06 | 3.1 | 126
concentration: 82.3 (µM), S9 metabolic activation: with S9, exposure time: 3-4 hours | 0.22 | 1.48 | 102
concentration: 82.3 (µM), S9 metabolic activation: without S9, exposure time: 24 hours | 0.72 | 2.8 | 112
concentration: 103 (µM), S9 metabolic activation: with S9, exposure time: 3-4 hours | 0.44 | 1.68 | 138
concentration: 103 (µM), S9 metabolic activation: without S9, exposure time: 24 hours | 1.26 | 3.02 | 119
concentration: 129 (µM), S9 metabolic activation: with S9, exposure time: 3-4 hours | 0.16 | 1.46 | 119
concentration: 129 (µM), S9 metabolic activation: without S9, exposure time: 24 hours | 1.26 | 3.46 | 95
concentration: 161 (µM), S9 metabolic activation: with S9, exposure time: 3-4 hours | 0.16 | 2.08 | 132
concentration: 161 (µM), S9 metabolic activation: without S9, exposure time: 24 hours | 0.98 | 2.18 | 104
concentration: 201 (µM), S9 metabolic activation: with S9, exposure time: 3-4 hours | 0.34 | 1.9 | 114
concentration: 201 (µM), S9 metabolic activation: without S9, exposure time: 24 hours | 1.28 | 3.28 | 90.4
